Laboratory results published in the RNAGym collection of RNA variant scans (doi:10.1101/gad.245936.114).
Variants at the floor of the assay are shown more often than the library holds them.

B1: tRNA (parent)
chain: CUCUCGGUAGCCAAGUUGGUUUAAGGCGCAAGACUUUAAUUUAUCACUACGAAAUCUUGAGAUCGGGCGUUCGACUCGCCCCCGGGAGAUUUUUUCCUCGAGCAA

Variants of: B1
Test: nonsense suppression (GFP-seq) (ratio to wild type); higher = more function; SUP4oc tRNA, yeast GFP reporter sort-seq
In short: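 Yeast carrying genome-integrated SUP4oc tRNA variants from a library with ~3% random mutations were grown in raffinose/galactose medium with 80 mg/L adenine. Each strain also carried a galactose-driven GFP ochre reporter and RFP. Cells were sorted into GFP/RFP bins, and each bin was Illumina-sequenced (phred ≥30). Nonsense suppression (GFPSEQ) is the bin median GFP/RFP, weighted by each variant's estimated cell share per bin, relative to wild-type SUP4oc; variants needed ≥100 reads and ≥30 cells.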

Nonsense suppression, ≤ 0.026:
CUCUCGGUAUCCAAGUUGGUUUAAGGCGCAAGACUUUAAUUUAUCACUACGAAAUCUUGAGAUCCGGCGUUCGACUCGCCCCCGGGAGAUUUUUUCCUCGAGCAA [G10U G65C]
CUCUCGGUAUCCAAGUUGGUUUAAGGCGCAAGACUUUAAUUUAUCACUACGAAAUCUUGAGAUCGAGCGUUCGACUCGACCCCGGGCGAUUUUUUCCUCGAGCAA [G10U G66A C79A A87C]
CUCUCGGUAUCCAAGUUGGUUUAAGGCGCAAGACUUUAAUUUAUCACUACGAAAUCUUGAGAUCGUGCGUUCGACUCGCCCCCGAGAGAUUUUUUCCUCGAGCAA [G10U G66U G85A]
CUCUCGGUAUCCAAGAUGGUUAAUGGCGCAAGACUUUAAUUUAUCACUACGAAAUCUUGAGAUCGGGCGUUUGACUCGCCCCCGGGAGAUUUUUUCCUCGAGCAA [G10U U16A U22A A24U C72U]
CUCUCGGUAUCCAAGCUGGUUUAAGGCGCAAGACUUUAAUUUAUCACUACGAAACCUUGAGAUCGGGCGUUCGACUCGCCCCCGGGAGAUUUUUUCCUCGAGCAA [G10U U16C U55C]
CUCUCGGUAUCCAAGGUGCUUUAAGGCGCAAGACUUUAAUUUAUCACUACGAAAUCUUGAGAUCGGGCGUUCGACUCGCCCCCGGGAGAUUUUUUCCUCGAGCAA [G10U U16G G19C]
CUCUCGGUAUCCAAGUAGUUUUCAGGCGCAAGACUUUAAUUUAUCACUACGAAAUCUUGAGAUCGGGCGUUCGACUCGCCCCCGGGAGAUUUUUUCCUCGAGCAA [G10U U17A G19U A23C]
CUCUCGGUAUCCAAGUUGGAUUAAGGCGCAAGACUUUAAUUUAUCACUACGAAAUCUUGAGAUCGGGCGUUCGACUCGCCCCCGGGAGAUUUUUUCCUCGAGCAA [G10U U20A]
CUCUCGGUAUCCAAGUUGGGUUAAGGCGCAAGACUUUAAUUUAUCACUACGAAAUCUUGAGAUCGGGCGUUCGACUCGCCCCCGGGAGAUUUUUUCCUCGAGCAA [G10U U20G]
CUCUCGGUAUCCAAGUUGGGUUAAGGCGCAAGACUUUAAUUUAUCACUACGAAAUCCUGAGAUCGGGCGUUCGACUCGCCCCCGGGAGAUUUUUUCCUCGAGCAA [G10U U20G U57C]
CUCUCGGUAUCCAAGUUGGUAUAAGGCGCAAGACUUUAAUUUAUCACUACGAAAUCUUGAGAUCGGGCGUUCGCCUCGCCCCCGGGAGAUUUUUUCCUCGAGCAA [G10U U21A A74C]
CUCUCGGUAUCCAAGUUGGUAUAAGGCGCAAGACUUUAAUUUAUCACUACGAAAUCUUGAGAUCGGGCGUUCGACACGCCCCCGGGAGAUUUUUUCCUCGAGCAA [G10U U21A U76A]
CUCUCGGUAUCCAAGUUGGUCUAAGGCGCAAGACUUUAAUUUAUCACUACGAAAUCUUGAGAUCGGGCGUUCGUCUCGCCCCCGGGAGAUUUUUUCCUCGAGCAA [G10U U21C A74U]
CUCUCGGUAUCCAAGUUGGUCUAAGGCGCAAGACUUUAAUUUAUCACUACGAAAUCUUGAGAUCGGGCGUUCGAGUCGCCCCCGGGAGAUUUUUUCCUCGAGCAA [G10U U21C C75G]
CUCUCGGUAUCCAAGUUGGUUAAAGGAGCAAGACUUUAAUUUAUCACUACGAAAUCUUGAGAUCGGGCGUUCUACUCGCCCCCGGGAGAUUUUUUCCUCGAGCAA [G10U U22A C27A G73U]
CUCUCGGUAUCCAAGUUGGUUAAAGGCGCAAGACUUUAAUUUAUCACUACGAAAUCUUGAGAUCGGGCGUUCGAAUGGCCCCCGUGAGAUUUUUUCCUCGAGCAA [G10U U22A C75A C77G G85U]
CUCUCGGUAUCCAAGUUGGUUUAAGGCGCAAGACGUUAAUUUAUCACUACGAAAUCUUGAGAUCGGGCGUUCGACUCGCCCCCGGGAGCUUUUUUCCUCGAGCAA [G10U U35G A89C]
CUCUCGGUAUCCAAGUUGGUUUAAGGCGCAAGACGUUAAUUUAUCACUACGAAAUCUUGAAAUCGGGCGUUCGACUCGCCCCCGGGAGAUUUUUUCCUCGAGCAA [G10U U35G G61A]
CUCUCGGUAUCCAAGUUGGUUUAAGGCGCAAGACUUUAAUUUAUCACUACGAAAACUUAAGAUCGGGCGUUCGACUCGCCCCCGGCAGAUUUUUUCCUCGAGCAA [G10U U55A G59A G86C]
CUCUCGGUAUCCAAGUUGGUUUAAGGCGCAAGACUUUAAUUUAUCACUACGAAAGCUUGAGAUCGGACGUUCGACUCGCCCCCGGGAGAUUUUUUCCUCGAGCAA [G10U U55G G67A]
CUCUCGGUAUCCAAGUUGGUUUAAGGCGCAAGACUUUAAUUUAUCACUACGAAAUCAUGAGAUCGGACGUUCGACUGGCCCCCGGGAGAUUUUUUCCUCGAGCAA [G10U U57A G67A C77G]
CUCUCGGUAUCCAAGUUGGUUUAAGGCGCAAGACUUUAAUUUAUCACUACGAAAUCAUGAGAUCGGGCGUACGACUCGCCCCCGGGAGAUUUUUUCCUCGAGCAA [G10U U57A U71A]
CUCUCGGUAUCCAAGUUGGUUUAAGGCGCAAGACUUUAAUUUAUCACUACGAAAUCCUGAGAUCGGGCGUUCAACUCGCCCCCUGGAGAUUUUUUCCUCGAGCAA [G10U U57C G73A G84U]
CUCUCGGUAUCCAAGUUGGUUUAAGGCGCAAGACUUUAAUUUAUCACUACGAAAUCUCGAGAUCGGGCGUUCGACUCGCCCCCGGGAGAUUUUUUCCUCGAGCAA [G10U U58C]
CUCUCGGUAUCCAAGUUGGUUUAAGGCGCAAGACUUUAAUUUAUCACUACGAAAUCUUGAGAUCGGGCGUCCGGCUCGCCCCCGGGAGAUUUUUUCCUCGAGCAA [G10U U71C A74G]
CUCUCGGUAUCCAAGUUGGUUUAAGGCGCAAGACUUUAAUUUAUCACUACGAAAUCUUGAGAUCGGGCGUUCGACCCGCCCCCGGUAGAUUUUUUCCUCGAGCAA [G10U U76C G86U]
CUCUCGGUAUCCAAGUUGGUUUAAGGCGCAAGACUUUAAUUUAUCACUACGAAAUCUUGAGAUCGGGCGUUCGACGCGCCUCCGGGAGAUUUUUUCCUCGAGCAA [G10U U76G C81U]
